Source: the BET-seq Pho4 binding data (Le et al. 2018)
The other results are listed elsewhere or left out. These are noisy estimates, calculated here from bound and input reads.

These sequences were tested against T1, Pho4 (S. cerevisiae) (UniProt P07270) (assay: relative binding free energy (BET-seq); higher = weaker binding). Conditions: reference: library average.
T1 sequence: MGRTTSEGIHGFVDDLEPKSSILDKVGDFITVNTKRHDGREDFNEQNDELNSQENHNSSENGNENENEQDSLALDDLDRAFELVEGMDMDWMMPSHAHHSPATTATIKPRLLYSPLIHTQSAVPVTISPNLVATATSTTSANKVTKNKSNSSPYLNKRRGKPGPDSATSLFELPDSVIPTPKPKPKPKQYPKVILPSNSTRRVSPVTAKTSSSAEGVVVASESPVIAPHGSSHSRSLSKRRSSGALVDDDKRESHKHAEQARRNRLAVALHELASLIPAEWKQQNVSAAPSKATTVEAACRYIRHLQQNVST

Sequence | relative binding free energy [kcal/mol]
TGCTACACGTGTATGT | -0.05
GCATACACGTGTGGTT | 0.11
TAGTTCACGTGATCGG | 0.44
GAGTACACGTGGGACG | 0.16
CGATGCACGTGTATGT | -0.04
GGAGGCACGTGATAGA | -0.02
TATAGCACGTGCTTTA | -0.01
AATTACACGTGGTTGT | 0.05
CTGGGCACGTGTGTAG | -0.11
CGCGTCACGTGAGGTT | 0.22
GTGATCACGTGTGTCG | 0.24
TAGGGCACGTGTTACA | -0.12
TTTAACACGTGTGGGC | 0.05
CCGGGCACGTGCGTGG | -0.2
TATAACACGTGGGCGG | -0.15
GTGTACACGTGCTGGA | -0.02
GGGTTCACGTGGATCT | 0.31
GGGCGCACGTGAGGAT | 0.18
GGTAGCACGTGGTGAG | 0.01
ATGTGCACGTGTTGGT | 0.06
TGTGTCACGTGTAGAT | 0.18
ACATTCACGTGAAGTT | 0.46
TGGTTCACGTGTTCAG | 0.27

Sequence | relative binding free energy [kcal/mol]
TAGGTCACGTGTTATA | 0
AACGGCACGTGTTGGA | 0.01
TGATGCACGTGATGAA | 0.17
GGGGTCACGTGATTTC | 0.3
GTATCCACGTGTTTAT | 0.1
TAATGCACGTGGATAG | -0.13
ATTTCCACGTGGGGAT | 0
AGGGTCACGTGTGTTG | 0.13
TTTGTCACGTGATGGG | 0.31
TGGGACACGTGATTCG | 0.07
GTAACCACGTGGTTTT | -0.01
CGGTGCACGTGTTAGA | -0.06
GTGTGCACGTGGGGCG | -0.08
GTTTACACGTGCGAAG | 0.21
TGAGTCACGTGCGATT | 0.05
AGTTGCACGTGGTGAT | -0.05
TTTTGCACGTGTACTA | 0.02
AGGCTCACGTGTGGGC | 0.15
GCTGGCACGTGTCGTT | -0.03
ATTTTCACGTGGTTTG | 0.29
TGTGTCACGTGCTGGT | 0.03
TATAGCACGTGTAGGT | 0.02
CTGATCACGTGTGATG | 0.16

Sequence | relative binding free energy [kcal/mol]
AGTGTCACGTGGGTGA | -0.1
GGTGTCACGTGTTGAC | 0.15
GCATACACGTGGGTTT | 0.03
CTGTGCACGTGAGCTG | 0.21
AGTTGCACGTGGAAAT | 0.07
TGGGACACGTGGTCGT | -0.1
GATACCACGTGGTTTG | -0.02
GTTAGCACGTGAGCAG | 0.16
TAAGCCACGTGTGGGG | -0.05
AGGTTCACGTGCTAAG | 0.21
GTAGACACGTGGGAAT | -0.02
ATGTGCACGTGTGCGA | -0.07
GTTTGCACGTGTACTA | 0.18
AGCGTCACGTGTAGTG | 0.13
TTCGTCACGTGGGCAG | 0.02
CGGGGCACGTGTGAGG | -0.02
TCGTTCACGTGGGAGA | 0.23
TGTATCACGTGCTTTG | 0.07
GCGGACACGTGTGAGG | 0.01
AAACTCACGTGGGTTG | 0.16
TTGGTCACGTGTTCGC | 0.14
ATGGTCACGTGTGCTG | 0.14
TTTTGCACGTGTCGCT | 0.03

Sequence | relative binding free energy [kcal/mol]
GTTAGCACGTGGGATA | 0.04
CGTATCACGTGGTTGG | 0.06
TGCGGCACGTGAAGGA | 0.07
TACGGCACGTGGACGG | -0.05
GCGGGCACGTGCTTGG | -0.1
CGGATCACGTGGATTT | 0.39
TAGGGCACGTGAGGTA | 0.12
GTGAGCACGTGCGTAT | -0.2
AGTGCCACGTGCTTGT | -0.01
GCGTTCACGTGATCGT | 0.33
GGGTACACGTGCGGAG | 0.04
TTGTCCACGTGGTGAT | 0.08
GTTGTCACGTGGAAAT | 0.08
TTCTGCACGTGTTATT | -0.02
GGTTCCACGTGTTATG | 0.17
ATTCTCACGTGGTTGA | 0.43
TTGGCCACGTGAGGTA | 0.13
CTGCTCACGTGTGGTT | 0.09
AGTATCACGTGCCGGT | 0.15
GTTAGCACGTGTATTA | -0.05
GGCAACACGTGTAGGT | 0
TTTTTCACGTGTTGCT | 0.28
TAAGGCACGTGCTGCG | -0.14

Sequence | relative binding free energy [kcal/mol]
ATTGCCACGTGGATGT | -0.19
AAGGGCACGTGCTTGA | -0.18
GAATGCACGTGTTCGG | 0.1
TATTTCACGTGGTACT | 0.24
TTATACACGTGAGTGT | 0.34
TCATGCACGTGTGGCT | -0.1
TAAAGCACGTGATGAT | 0.06
GAAGTCACGTGGTTAT | 0.12
TTAAGCACGTGCGGCG | -0.14
TCTATCACGTGTTTTG | 0.07
TCGTGCACGTGTAGGA | 0.02
CGGGTCACGTGCTGTT | 0.14
ATTGCCACGTGTTGTT | -0.07
ATGGACACGTGGGGTA | -0.1
GATATCACGTGCGGTA | 0.19
AATGGCACGTGCGGAG | -0.16
GGTGTCACGTGGGCAG | 0.01
TCTAGCACGTGGGGAT | -0.19
AAGAGCACGTGGTGCG | -0.3
ACGGGCACGTGTTGGC | -0.03
GTGTGCACGTGATCTT | 0.1
AGTTACACGTGGATGG | 0.12
GGTCACACGTGTGGGC | 0.1
